From the supplement of paper PMC4604168 (melanoma cell lines)
The other results are listed elsewhere or left out. Many values rest on one well or one pass, so single values are uncertain.

Experiments:
Assay in all cases: cell count relative to DMSO control; melanoma cells; higher = more viable cells
Conditions in all cases: library dose: low library concentration; 72 h
MZ2-MEL = system: MZ2-MEL
MeWo = system: MeWo
RPMI7951 = system: RPMI7951
RVH-421 = system: RVH-421
SkMel28 = system: SkMel28
SkMel2 = system: SkMel2
SkMel30 = system: SkMel30
SkMel5 = system: SkMel5
UACC257 = system: UACC257
UACC62 = system: UACC62
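Further: cell number obtained by counting DAPI-stained nuclei in high-throughput microscope images with image analysis software, screen run in 1,536-well plates.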

SMILES	cell count (MZ2-MEL) [%]	cell count (MeWo) [%]	cell count (RPMI7951) [%]	cell count (RVH-421) [%]	cell count (SkMel28) [%]	cell count (SkMel2) [%]	cell count (SkMel30) [%]	cell count (SkMel5) [%]	cell count (UACC257) [%]	cell count (UACC62) [%]
CC1(C)CCC(c2ccc(Cl)cc2)=C(CN2CCN(c3ccc(C(=O)NS(=O)(=O)c4ccc(N[C@H](CCN5CCOCC5)CSc5ccccc5)c(S(=O)(=O)C(F)(F)F)c4)cc3)CC2)C1 + CCN(CC)CCCCNc1ncc2cc(-c3cc(OC)cc(OC)c3)c(NC(=O)NC(C)(C)C)nc2n1 [PD173074] (first compound 0.4 µM, partner dose 0.1 µM)	100	67.1	45.8	55.1	88.3	85.4	84.5	72.1	96.8	89.1
O=C(/C=C/c1cccnc1)NCCCCC1CCN(C(=O)c2ccccc2)CC1 + COc1ccc2c(c1)CCC1C2CCC2(C)C(NCCCCCCN3C(=O)C=CC3=O)CCC12 [U73122] (first compound 0.01 µM, partner dose 0.4 µM)	46.8	101	89.3	47	87	42.1	82.6	88.2	90.3	99.2
CC1(C)CCC(c2ccc(Cl)cc2)=C(CN2CCN(c3ccc(C(=O)NS(=O)(=O)c4ccc(N[C@H](CCN5CCOCC5)CSc5ccccc5)c(S(=O)(=O)C(F)(F)F)c4)cc3)CC2)C1 + NC(=O)Nc1cc(-c2cccc(F)c2)sc1C(=O)N[C@H]1CCCNC1 [AZD7762] (first compound 0.4 µM, partner dose 0.02 µM)	99.2	83.4	43	81.5	92.6	95.3	70.1	63.7	113	102
CC1(C)CCC(c2ccc(Cl)cc2)=C(CN2CCN(c3ccc(C(=O)NS(=O)(=O)c4ccc(N[C@H](CCN5CCOCC5)CSc5ccccc5)c(S(=O)(=O)C(F)(F)F)c4)cc3)CC2)C1 + Cn1cc(/C=C2\C(=O)Nc3cccnc32)c2ccccc21 [GW441756] (first compound 0.4 µM, partner dose 0.4 µM)	90.8	88.1	74.1	72.4	90.5	92.5	76	64.1	63.2	89.2
Cc1ccc(Nc2nccc(N(C)c3ccc4c(C)n(C)nc4c3)n2)cc1S(N)(=O)=O [Pazopanib] + Cc1ccc(NC(=O)c2cccc(N(C)C)c2)cc1NC(=O)c1ccc(O)cc1 [ZM336372] (first compound 0.4 µM, partner dose 2 µM)	77.6	98.8	89.8	118	78.2	112	91.2	81	99.7	86.2
O=C(/C=C/c1cccnc1)NCCCCC1CCN(C(=O)c2ccccc2)CC1 + Cc1ccc(NC(=O)c2cccc(N(C)C)c2)cc1NC(=O)c1ccc(O)cc1 [ZM336372] (first compound 0.01 µM, partner dose 2 µM)	36.1	108	91.5	58.8	68.3	47.3	78.3	110	108	91.5
O=C(/C=C/c1cccnc1)NCCCCC1CCN(C(=O)c2ccccc2)CC1 + Cc1cc([N+](=O)[O-])ccc1NS(=O)(=O)c1cc(Cl)ccc1Cl [FH535] (first compound 0.01 µM, partner dose 1 µM)	44.4	99.6	113	66	102	47.8	92.7	108	98.4	95.2
O=C(/C=C/c1cccnc1)NCCCCC1CCN(C(=O)c2ccccc2)CC1 + CN(NC(=O)CC(=O)NN(C)C(=S)c1ccccc1)C(=S)c1ccccc1 [STA4783] (first compound 0.01 µM, partner dose 0.006 µM)	38.6	99.7	95.4	37.7	86.7	57.9	90.5	97	70.5	93.6
CC1(C)CCC(c2ccc(Cl)cc2)=C(CN2CCN(c3ccc(C(=O)NS(=O)(=O)c4ccc(N[C@H](CCN5CCOCC5)CSc5ccccc5)c(S(=O)(=O)C(F)(F)F)c4)cc3)CC2)C1 + O=c1cc(-c2cccc3c2Sc2ccccc2S3)oc(N2CCOCC2)c1 [KU55933] (first compound 0.4 µM, partner dose 1 µM)	90.5	81.1	63.2	98.4	78.6	81.4	71.9	75.8	105	108
CC1(C)CCC(c2ccc(Cl)cc2)=C(CN2CCN(c3ccc(C(=O)NS(=O)(=O)c4ccc(N[C@H](CCN5CCOCC5)CSc5ccccc5)c(S(=O)(=O)C(F)(F)F)c4)cc3)CC2)C1 + OCCn1cc(-c2cnc3nnn(Cc4ccc5ncccc5c4)c3n2)cn1 [PF04217903] (first compound 0.4 µM, partner dose 1 µM)	101	73.5	66.5	98.1	89.2	98.4	70.6	72.9	87.1	96.3
O=C(/C=C/c1cccnc1)NCCCCC1CCN(C(=O)c2ccccc2)CC1 + OCCn1cc(-c2cnc3nnn(Cc4ccc5ncccc5c4)c3n2)cn1 [PF04217903] (first compound 0.01 µM, partner dose 1 µM)	38	117	105	72.1	81.9	50.4	97.7	90.3	95.1	94.4
Cc1ccc(Nc2nccc(N(C)c3ccc4c(C)n(C)nc4c3)n2)cc1S(N)(=O)=O [Pazopanib] + O=S(=O)(c1ccccc1)N(CC(F)(F)F)c1ccc(C(O)(C(F)(F)F)C(F)(F)F)cc1 [T0901317] (first compound 0.4 µM, partner dose 1.4 µM)	78.1	109	68.5	112	97.2	95.8	82.7	100	91.5	59.2
Cc1ccc(Nc2nccc(N(C)c3ccc4c(C)n(C)nc4c3)n2)cc1S(N)(=O)=O [Pazopanib] + COc1ccc(COc2ccc(Cc3cnc(N)nc3N)cc2OC)cc1 [GW2580] (first compound 0.4 µM, partner dose 1 µM)	74.1	94.9	82.9	134	86.1	83	48.3	103	80	86.4
O=C(/C=C/c1cccnc1)NCCCCC1CCN(C(=O)c2ccccc2)CC1 + COc1ccc(-c2ccc3c(N4CCOCC4)nc(N4C[C@@H](C)O[C@@H](C)C4)nc3n2)cc1CO [KU0063794] (first compound 0.01 µM, partner dose 0.02 µM)	36.7	96.8	84.1	70.5	93.4	54.3	105	98.4	102	74.5
Cc1ccc(Nc2nccc(N(C)c3ccc4c(C)n(C)nc4c3)n2)cc1S(N)(=O)=O [Pazopanib] + Oc1nc(-c2ccc(C(F)(F)F)cc2)nc2c1CSCC2 [XAV939] (first compound 0.4 µM, partner dose 2 µM)	69.8	103	71	101	78.8	85.4	96.6	74	74.2	88.2
CC1(C)CCC(c2ccc(Cl)cc2)=C(CN2CCN(c3ccc(C(=O)NS(=O)(=O)c4ccc(N[C@H](CCN5CCOCC5)CSc5ccccc5)c(S(=O)(=O)C(F)(F)F)c4)cc3)CC2)C1 + C[C@@H]1CCN(C(=O)CC#N)C[C@@H]1N(C)c1ncnc2[nH]ccc12 [CP690550] (first compound 0.4 µM, partner dose 1 µM)	94.1	75.1	71.7	81.5	101	88.9	67.5	71.1	84.6	104
CC1(C)CCC(c2ccc(Cl)cc2)=C(CN2CCN(c3ccc(C(=O)NS(=O)(=O)c4ccc(N[C@H](CCN5CCOCC5)CSc5ccccc5)c(S(=O)(=O)C(F)(F)F)c4)cc3)CC2)C1 + N#Cc1c(O)c2c(-c3ccc(-c4ccccc4O)cc3)csc2[nH]c1=O [A769662] (first compound 0.4 µM, partner dose 2 µM)	98.5	63.9	51.6	76	95.4	88	68.5	63.5	96.4	96
CC1(C)CCC(c2ccc(Cl)cc2)=C(CN2CCN(c3ccc(C(=O)NS(=O)(=O)c4ccc(N[C@H](CCN5CCOCC5)CSc5ccccc5)c(S(=O)(=O)C(F)(F)F)c4)cc3)CC2)C1 + CCc1ccc(CCOc2ccc(CC3SC(=O)NC3=O)cc2)nc1 [pioglitazone] (first compound 0.4 µM, partner dose 2 µM)	98.9	74.7	61.5	70.7	91.8	87.5	70.4	79.6	93.6	110
O=C(/C=C/c1cccnc1)NCCCCC1CCN(C(=O)c2ccccc2)CC1 + COC(=O)c1sccc1S(=O)(=O)Nc1ccc(Nc2ccccc2)cc1OC [GSK0660] (first compound 0.01 µM, partner dose 1 µM)	33.7	108	104	39.8	76.3	31.5	76.8	84.5	118	91.8
Cc1ccc(Nc2nccc(N(C)c3ccc4c(C)n(C)nc4c3)n2)cc1S(N)(=O)=O [Pazopanib] + Cc1cc([N+](=O)[O-])ccc1NS(=O)(=O)c1cc(Cl)ccc1Cl [FH535] (first compound 0.4 µM, partner dose 1 µM)	71.6	91.8	94.3	83	76.6	105	74.7	80.2	88.9	89.8
CC1(C)CCC(c2ccc(Cl)cc2)=C(CN2CCN(c3ccc(C(=O)NS(=O)(=O)c4ccc(N[C@H](CCN5CCOCC5)CSc5ccccc5)c(S(=O)(=O)C(F)(F)F)c4)cc3)CC2)C1 + COC(=O)c1sccc1S(=O)(=O)Nc1ccc(Nc2ccccc2)cc1OC [GSK0660] (first compound 0.4 µM, partner dose 1 µM)	88.5	77.8	52.4	74.7	100	79.6	76.3	62	68.8	97.4
